Data from a collection of fitness landscapes (doi:10.1016/j.celrep.2020.107928).
Whole data set: some 81,000 sequences, median “one-hybrid fitness for binding parS DNA” near -0.17, cut for the highest 2% near 0.51. The list shows a part of the results.

B1: Caulobacter ParB omega fusion; a variant is named by its letters at X, in order, B8GW30 (parent)
chain: MESVVVGEPGMSEGRRGLGRGLSALLGEVDAAPAQAPGEQLGGSREAPIEILQRNPDQPRRTFREEDLEDLSNSIREKGVLQPILVRPSPDTAGEYQIVAGERAWRAAQRAGLKTVPIMVRELDDLAVLEIGIIENVQRADLNVLEEALSYKVLMEKFERTQENIAQTIGKSXSHVANXMRLLXLPDEVQSYLVSGELTAXHARAIAAAADPVALAKQIIEGGLSVRETEALARKAPNLSAGKSKGGRPPRVKDTDTQALESDLSSVLGLDVSIDHRGSTGTLTITYATLEQLDDLCNRLTRGI

Variants of: B1
Experiment: one-hybrid fitness for binding parS DNA (scaled: cognate 1, non-cognate 0); higher = stronger binding
Conditions: with parS DNA site
Summary of the method: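 Values were rescaled so that cognate is 1 and non-cognate is 0. Each is a fitness, the log change in a variant's read ratio to wild type from Illumina reads of plasmids before and after selection, with three replicate libraries pooled and variants under 10 reads dropped. Selection of the Caulobacter ParB libraries, four specificity codons randomised, used E. coli USO with a HIS3 reporter, site 19 bp from the promoter, on M9-minus-histidine with 0.1 mM IPTG and 5 mM 3-AT for 48 hours at 37°C.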

Variant	one-hybrid fitness for binding parS DNA
WQCR	≤ 0.2
NFLC	≤ 0.2
KCAW	≤ 0.2
QVRD	≤ 0.2
QTYD	≤ 0.2
WMKT	≤ 0.2
QRRH	≤ 0.2
RFTW	0.219
GSCG	≤ 0.2
SYKW	≤ 0.2
SLRP	≤ 0.2
IGGV	≤ 0.2
TKNS	≤ 0.2
NQFM	0.317
DRWE	≤ 0.2
QHPD	≤ 0.2
TLPA	≤ 0.2
DAKK	≤ 0.2
TVLM	≤ 0.2
TRWD	≤ 0.2
PPEV	≤ 0.2
VAPF	≤ 0.2
FRVT	≤ 0.2
PKWC	≤ 0.2

Variant	one-hybrid fitness for binding parS DNA
YTKT	≤ 0.2
IKPV	≤ 0.2
KKPV	≤ 0.2
LARY	≤ 0.2
EYRT	≤ 0.2
GVNG	≤ 0.2
TVSF	≤ 0.2
TCTV	≤ 0.2
CQSA	≤ 0.2
GGAC	≤ 0.2
NYPR	≤ 0.2
TARF	≤ 0.2
CHTK	≤ 0.2
ATHG	≤ 0.2
SYQV	≤ 0.2
DSQS	≤ 0.2
LSTF	≤ 0.2
RVMK	≤ 0.2
NTHG	≤ 0.2
NCPR	≤ 0.2
PWDY	≤ 0.2
NCKD	≤ 0.2
HQRM	≤ 0.2
HESG	≤ 0.2

Variant	one-hybrid fitness for binding parS DNA
ERTR	≤ 0.2
RIMG	0.996
STAN	≤ 0.2
LAPD	≤ 0.2
LPQA	≤ 0.2
YKLC	≤ 0.2
CLVT	≤ 0.2
HLFR	≤ 0.2
CAPI	≤ 0.2
FRRL	≤ 0.2
DTPS	≤ 0.2
PLSL	≤ 0.2
ARWT	≤ 0.2
WGKS	≤ 0.2
QKCD	≤ 0.2
TNYQ	≤ 0.2
TFSA	≤ 0.2
GADG	≤ 0.2
LPWS	≤ 0.2
IMPV	≤ 0.2
HCMC	≤ 0.2
VTMR	≤ 0.2
LALD	≤ 0.2
PRAI	≤ 0.2

Variant	one-hybrid fitness for binding parS DNA
PRKH	≤ 0.2
QVNT	≤ 0.2
QCLW	≤ 0.2
ILRA	≤ 0.2
CQSS	≤ 0.2
GDVI	≤ 0.2
KVYC	≤ 0.2
NNGN	≤ 0.2
SPAK	≤ 0.2
ILWW	≤ 0.2
QWLA	≤ 0.2
PASI	≤ 0.2
AFQG	≤ 0.2
DGHT	≤ 0.2
WNVG	≤ 0.2
PDQL	≤ 0.2
SNNT	≤ 0.2
RKQD	≤ 0.2
ESIY	≤ 0.2
PVLS	≤ 0.2
RSDP	≤ 0.2
ATLT	≤ 0.2
FTIS	≤ 0.2
FNRD	≤ 0.2

Variant	one-hybrid fitness for binding parS DNA
RHYH	0.223
REST	≤ 0.2
CSGY	≤ 0.2
PHLL	≤ 0.2
CSPR	≤ 0.2
WYEY	≤ 0.2
LRII	≤ 0.2
EFHL	≤ 0.2
YSRC	≤ 0.2
HSEG	≤ 0.2
HRPY	≤ 0.2
LPEV	≤ 0.2
DANS	≤ 0.2
SLMQ	≤ 0.2
NRKN	≤ 0.2
QMLD	≤ 0.2
SREV	≤ 0.2
MTKS	≤ 0.2
HDTP	≤ 0.2
VHNG	≤ 0.2
EHLY	≤ 0.2
DATW	≤ 0.2
DAIN	≤ 0.2
FWSS	≤ 0.2

Variant	one-hybrid fitness for binding parS DNA
YVKV	≤ 0.2
MMAV	≤ 0.2
DGGT	≤ 0.2
KKVN	≤ 0.2
NLEW	≤ 0.2
PLRA	≤ 0.2
DRFG	≤ 0.2
WQFR	≤ 0.2
QLVD	≤ 0.2
VPNC	≤ 0.2
LMGD	≤ 0.2
HRGM	≤ 0.2
QKKP	≤ 0.2
LLEV	≤ 0.2
MRKK	≤ 0.2
PKAM	≤ 0.2
PRDA	≤ 0.2
CSPT	≤ 0.2
SQQC	≤ 0.2
IVAD	≤ 0.2
NECC	≤ 0.2
QPKI	≤ 0.2
QSPD	≤ 0.2
PRVN	≤ 0.2

Variant	one-hybrid fitness for binding parS DNA
KCGR	≤ 0.2
TATT	≤ 0.2
TPTG	≤ 0.2
CYGG	≤ 0.2
IEWL	≤ 0.2
SKAH	≤ 0.2
SWQM	≤ 0.2
QQSM	≤ 0.2
PGCE	≤ 0.2
GWSN	≤ 0.2
SWPS	≤ 0.2
GTYR	≤ 0.2
RIIY	0.398
TKHW	≤ 0.2
PNSA	≤ 0.2
KRYF	≤ 0.2
VLPH	≤ 0.2
QIDE	≤ 0.2
YMSG	≤ 0.2
PVTK	≤ 0.2
YDQM	≤ 0.2
ENCR	≤ 0.2
VDLE	≤ 0.2
IRNF	≤ 0.2

Variant	one-hybrid fitness for binding parS DNA
ATGA	≤ 0.2
ILAM	≤ 0.2
QAQC	≤ 0.2
TSDS	≤ 0.2
PHKL	≤ 0.2
GCDR	≤ 0.2
KKQP	≤ 0.2
LTCA	≤ 0.2
ACKH	≤ 0.2
FTHC	≤ 0.2
ADDH	≤ 0.2
MRLP	≤ 0.2
NDCA	≤ 0.2
KMVT	≤ 0.2
TITP	≤ 0.2
LDPA	≤ 0.2
VWTL	≤ 0.2
EWKR	≤ 0.2
IGSW	≤ 0.2
VYER	≤ 0.2
HAAC	≤ 0.2
FQSI	≤ 0.2
QTIQ	≤ 0.2
CIFR	≤ 0.2

Variant	one-hybrid fitness for binding parS DNA
TEIG	≤ 0.2
QIRR	≤ 0.2
LFET	≤ 0.2
KPDI	≤ 0.2
KKHT	≤ 0.2
RYNF	0.214
QQNM	≤ 0.2
DTMQ	≤ 0.2
YHHA	≤ 0.2
MEPC	≤ 0.2
PQCT	≤ 0.2
DPMA	≤ 0.2
IQGS	≤ 0.2
TWLA	≤ 0.2
WMTC	≤ 0.2
SGCG	≤ 0.2
QDSN	≤ 0.2
TLCC	≤ 0.2
DEPS	≤ 0.2
GVRR	≤ 0.2
LSRI	≤ 0.2
AILT	≤ 0.2
THGI	≤ 0.2
CYWL	≤ 0.2

Variant	one-hybrid fitness for binding parS DNA
DLNV	≤ 0.2
KWWR	≤ 0.2
LEAC	≤ 0.2
LVPD	≤ 0.2
QAMF	≤ 0.2
HWYM	≤ 0.2
HVIC	≤ 0.2
VAWS	≤ 0.2
PSER	≤ 0.2
LPRF	≤ 0.2
ILSR	≤ 0.2
FGHC	≤ 0.2
KRGC	≤ 0.2
ALPV	≤ 0.2
IHLY	≤ 0.2
RTAY	0.485
MWNT	≤ 0.2
QGDR	≤ 0.2
HHLD	≤ 0.2
LKAE	≤ 0.2
LIKL	≤ 0.2
ADWS	≤ 0.2
IFLM	≤ 0.2
ALGV	≤ 0.2

Variant	one-hybrid fitness for binding parS DNA
QEGS	≤ 0.2
AKQW	≤ 0.2
DATV	≤ 0.2
VHVG	≤ 0.2
GMPE	≤ 0.2
CNKT	≤ 0.2
CYRC	≤ 0.2
QDIR	≤ 0.2
QQVY	≤ 0.2
QVYM	≤ 0.2
SSAT	≤ 0.2
WHKT	≤ 0.2
GWTV	≤ 0.2
LVQL	≤ 0.2
KRHA	≤ 0.2
ANPT	≤ 0.2
WCWR	≤ 0.2
PGIL	≤ 0.2
MTPG	≤ 0.2
LVLY	≤ 0.2
IWRG	≤ 0.2
PNYN	≤ 0.2
SDFT	≤ 0.2
KYCS	≤ 0.2

Variant	one-hybrid fitness for binding parS DNA
ENIS	≤ 0.2
HFVR	≤ 0.2
RVEI	≤ 0.2
RTVL	≤ 0.2
TTSR	≤ 0.2
QGYT	≤ 0.2
PWVQ	≤ 0.2
DKLT	≤ 0.2
QIQV	≤ 0.2
MINC	≤ 0.2
LCHY	≤ 0.2
DRKV	≤ 0.2
RKRC	0.737
IRTF	≤ 0.2
MCKC	≤ 0.2
KCMV	≤ 0.2
GELL	≤ 0.2
VDRR	≤ 0.2
RHQI	≤ 0.2
LGQS	≤ 0.2
KVGL	≤ 0.2
QKQF	≤ 0.2
NHKE	≤ 0.2
HNSI	≤ 0.2

Variant	one-hybrid fitness for binding parS DNA
PSDS	≤ 0.2
VFDC	≤ 0.2
DVMG	≤ 0.2
HMDV	≤ 0.2
QWHR	≤ 0.2
TYSS	≤ 0.2
NKKV	≤ 0.2
EGKF	≤ 0.2
KSRY	≤ 0.2
PLNH	≤ 0.2
IYAI	≤ 0.2
AVDT	≤ 0.2
AGTL	≤ 0.2
ADPW	≤ 0.2
CPLK	≤ 0.2
LVAN	≤ 0.2
WPVN	≤ 0.2
WRVT	≤ 0.2
